Consider nine compounds from PubChem BioAssay (NCATS).

For experiment [1], the target named is Histamine N-methyltransferase (Homo sapiens) (UniProt P50135). The experiment in a line: Confirmatory Screen for Target Class Profiling of Small Molecule Inhibitors of Methyltransferases (AID 1745852).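 Further: inhibitor potency for blocking SAH production.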 The note with it: MTase-Glo luminescence, SAH detection, recombinant enzyme; measured here: HNMT inhibition potency.
For experiment [2], the target named is Nicotinamide N-methyltransferase (Homo sapiens) (UniProt P40261). Described as above. The settings on record: MTase-Glo luminescence, SAH detection, recombinant enzyme; measured here: NNMT inhibition potency.

Some of the results follow. Further columns of the screen follow, without active or inactive calls. The list favours compounds with an active or inconclusive main result. Potencies come from curve fits of mixed quality, noted in brackets.
Tags describe the fitted curve by direction and shape.

Chain of UniProt P40261 (P40261 whole entry, looked up): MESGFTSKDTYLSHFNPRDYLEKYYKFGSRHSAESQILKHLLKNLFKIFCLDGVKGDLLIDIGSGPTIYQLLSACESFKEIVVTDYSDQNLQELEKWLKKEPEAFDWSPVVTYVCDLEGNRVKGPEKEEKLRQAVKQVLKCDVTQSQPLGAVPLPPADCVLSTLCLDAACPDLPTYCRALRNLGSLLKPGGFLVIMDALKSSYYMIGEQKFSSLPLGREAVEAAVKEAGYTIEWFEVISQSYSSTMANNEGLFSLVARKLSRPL
Chain of UniProt P50135 (P50135 whole entry, looked up): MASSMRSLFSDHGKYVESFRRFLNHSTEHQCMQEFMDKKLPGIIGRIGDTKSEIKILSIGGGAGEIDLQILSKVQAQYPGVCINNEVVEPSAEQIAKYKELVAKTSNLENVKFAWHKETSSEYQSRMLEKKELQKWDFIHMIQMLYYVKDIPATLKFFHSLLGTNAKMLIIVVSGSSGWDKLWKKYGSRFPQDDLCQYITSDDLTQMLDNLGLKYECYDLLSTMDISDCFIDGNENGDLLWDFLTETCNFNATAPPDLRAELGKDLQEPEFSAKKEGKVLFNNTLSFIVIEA

The IC50 is the concentration needed to halve the response being measured. In the case of `O=C1NC2CCCCN2C12CCN(CCCN1c3ccccc3CCc3ccc(Cl)cc31)CC2` (centres undefined), the 50% inhibitory concentration (IC50) in experiment [1] is 6.81 µM [falling, full curve]; in experiment [2], 21.5 µM [falling, partial curve, poor fit].
Take `CC(C)c1cc2c(N3CCN(C4=NCC(C)(C)S4)CC3)ncnc2s1`: the IC50 in experiment [1] is 21.5 µM [falling, partial curve]; in experiment [2], 19.2 µM [falling, partial curve].
With `Cc1cc(-c2nc3ccncc3[nH]2)c(C)[nH]1`, the IC50 was 7.84 µM [falling, full curve] in experiment [1] and 49.4 µM [falling, partial curve, poor fit] in experiment [2].
On to `COc1ccc(NC(=O)C(C)(C)Oc2nn(CC3CC3)c3ccc(CN4CCCC4)cc23)cc1`, for which the concentration for half-maximal inhibition (IC50) in experiment [1] was 19.2 µM [falling, partial curve].
For the compound `CC1CCCCN1CCNC(=O)Cn1ccc2cc(S(=O)(=O)N3CCCCC3)ccc21` (centres undefined), in experiment [1], the IC50 is 21.5 µM [falling, partial curve].
The same measure, in the same setting: for `Cc1cnc(C2CC2)n1C1CCCN(Cc2ccccc2)C1` (centres undefined) the value was 15.2 µM [falling, partial curve]; for `CN(C)c1nc2c(c(N3C[C@@H](CN4CCCC4)[C@@H](CO)C3)n1)CCCC2`, 4.29 µM [falling, partial curve].
On to `COc1ccc(CC(=O)Nc2ccc3ncnc(N4CCCC4)c3c2)c(Cl)c1`, for which the IC50 in experiment [1] is 5.41 µM [falling, full curve]; in experiment [2] it was 21.5 µM [falling, single point].
For `CCCC[C@@]1(C2CCCC2)Cc2cc(OCC(=O)O)c(Cl)c(Cl)c2C1=O`, the IC50 was 27.3 µM [falling, single point] in experiment [1] and 19.3 µM [falling, partial curve] in experiment [2].
